This is one part of the list. These are noisy estimates, calculated here from bound and input reads.

For the experiment, the target named is T1, Pho4 (S. cerevisiae) (UniProt P07270).
T1 sequence: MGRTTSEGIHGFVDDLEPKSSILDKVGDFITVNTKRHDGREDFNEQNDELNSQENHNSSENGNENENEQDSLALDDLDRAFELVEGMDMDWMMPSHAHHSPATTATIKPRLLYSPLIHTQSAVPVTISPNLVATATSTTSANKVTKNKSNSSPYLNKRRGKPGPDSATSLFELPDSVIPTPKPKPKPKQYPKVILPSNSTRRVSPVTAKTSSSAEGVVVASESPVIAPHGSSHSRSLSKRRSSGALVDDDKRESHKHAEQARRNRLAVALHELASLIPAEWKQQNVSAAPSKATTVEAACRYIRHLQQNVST
The experiment can be described thus: relative binding free energy (BET-seq); higher = weaker binding. Conditions: reference: library average.
On to GGTTTCACGTGTACAG, for which the “relative binding free energy” value worked out at 0.1 kcal/mol.

Take TTCGGCACGTGGATTA: the “relative binding free energy” value was -0.05 kcal/mol.

GCTAGCACGTGGGTTG: the “relative binding free energy” value is -0.05 kcal/mol.

As for TGGGTCACGTGGTGGT, the “relative binding free energy” value was 0.11 kcal/mol.

Take TCTATCACGTGTGGGC: the “relative binding free energy” value worked out at 0.25 kcal/mol.

As to ACGGTCACGTGATGAG, the “relative binding free energy” value was found to be 0.34 kcal/mol.

With CGGGGCACGTGGGGAA, the “relative binding free energy” value is -0.27 kcal/mol.

Turning to CGTCGCACGTGCTGGG, the “relative binding free energy” value is -0.05 kcal/mol.

For TTTTACACGTGGTCAG, the “relative binding free energy” value was 0 kcal/mol.

Turning to CGTCTCACGTGGGATT, the “relative binding free energy” value worked out at 0.24 kcal/mol.

In the case of TGGTTCACGTGCAAAT, the “relative binding free energy” value stood at 0.28 kcal/mol.

As to ACGGACACGTGGGGTG, the “relative binding free energy” value was -0.23 kcal/mol.

In the case of TTATACACGTGATTGA, the “relative binding free energy” value was found to be 0 kcal/mol.

For TTAGGCACGTGGACGT, the “relative binding free energy” value is -0.19 kcal/mol.

For the sequence GCGGTCACGTGATTGT, the “relative binding free energy” value came to 0.34 kcal/mol.

Take TTCATCACGTGTTTAA: the “relative binding free energy” value turned out to be 0.03 kcal/mol.

As for GAGAGCACGTGGAAGG, the “relative binding free energy” value is -0.06 kcal/mol.

Turning to AGTGGCACGTGTGTCT, the “relative binding free energy” value was -0.08 kcal/mol.

In the case of CATAGCACGTGTAGTT, the “relative binding free energy” value was -0.02 kcal/mol.

For TAGGTCACGTGGCTGC, the “relative binding free energy” value is -0.03 kcal/mol.

Consider GGACGCACGTGTTGGG, for which the “relative binding free energy” value is -0.06 kcal/mol.

For the sequence GTTTTCACGTGGTGTT, the “relative binding free energy” value turned out to be 0.32 kcal/mol.

Regarding AATTACACGTGTGGAT, the “relative binding free energy” value is 0.38 kcal/mol.

Turning to TTGGGCACGTGGCGAG, the “relative binding free energy” value is -0.23 kcal/mol.

Take AATATCACGTGTCTGG: the “relative binding free energy” value worked out at 0.21 kcal/mol.

On to GAAAGCACGTGTGTGG, for which the “relative binding free energy” value is -0.05 kcal/mol.

As to GCGTTCACGTGTGATA, the “relative binding free energy” value came to 0.29 kcal/mol.

As to TTAGTCACGTGGTGGC, the “relative binding free energy” value turned out to be 0.05 kcal/mol.

Take ATTAACACGTGTGTCG: the “relative binding free energy” value was -0.04 kcal/mol.

TGAGGCACGTGGAAGA: the “relative binding free energy” value was 0.07 kcal/mol.

On to ATGAGCACGTGCGGTT, for which the “relative binding free energy” value was 0.02 kcal/mol.

As for GTAGCCACGTGTGTGG, the “relative binding free energy” value turned out to be 0.03 kcal/mol.

Consider GTTTACACGTGGTATA, for which the “relative binding free energy” value amounted to 0.1 kcal/mol.

In the case of ATGCGCACGTGGCTGT, the “relative binding free energy” value is -0.32 kcal/mol.

Consider AGGGCCACGTGGTATT, for which the “relative binding free energy” value is -0.26 kcal/mol.

For ATCATCACGTGTTTAT, the “relative binding free energy” value worked out at 0.27 kcal/mol.

Regarding GAGGTCACGTGTCAGG, the “relative binding free energy” value was 0.19 kcal/mol.

As to TTGGTCACGTGTTTTA, the “relative binding free energy” value was determined as 0.19 kcal/mol.

Consider GAAAGCACGTGATTGG, for which the “relative binding free energy” value was found to be 0.22 kcal/mol.

Take TTAGTCACGTGTAAAA: the “relative binding free energy” value was determined as 0.16 kcal/mol.

For the sequence ATGTGCACGTGTGAGC, the “relative binding free energy” value was determined as 0.06 kcal/mol.

Take GCCATCACGTGGGTGG: the “relative binding free energy” value amounted to 0.06 kcal/mol.

As to TATGTCACGTGCGTCT, the “relative binding free energy” value is -0.1 kcal/mol.

TAAGGCACGTGTGTGC: the “relative binding free energy” value was -0.1 kcal/mol.

TTTCACACGTGCAGGT: the “relative binding free energy” value amounted to 0.23 kcal/mol.

Consider ACTAGCACGTGTTTGG, for which the “relative binding free energy” value is -0.05 kcal/mol.

Consider TTTTACACGTGGCGTT, for which the “relative binding free energy” value is 0.1 kcal/mol.

As to GTAAGCACGTGTTGGC, the “relative binding free energy” value is -0.05 kcal/mol.

Take GGGATCACGTGCGGAA: the “relative binding free energy” value was 0.2 kcal/mol.

On to ATGTACACGTGAAAGG, for which the “relative binding free energy” value was 0.28 kcal/mol.

Regarding GGTGCCACGTGGTGCG, the “relative binding free energy” value was -0.15 kcal/mol.

Turning to AGGCGCACGTGCGCGG, the “relative binding free energy” value is -0.12 kcal/mol.

For TATGTCACGTGTATAA, the “relative binding free energy” value is 0.09 kcal/mol.

For the sequence GTGTTCACGTGCGGGT, the “relative binding free energy” value came out at 0.26 kcal/mol.

Take GTCGACACGTGGGAGT: the “relative binding free energy” value is -0.02 kcal/mol.

As for ATTGTCACGTGAGACG, the “relative binding free energy” value is 0.22 kcal/mol.

Regarding GCGGTCACGTGGTGTA, the “relative binding free energy” value was -0.01 kcal/mol.

As to AGTGGCACGTGAATCG, the “relative binding free energy” value came out at 0.12 kcal/mol.

Regarding TTAATCACGTGTCTTG, the “relative binding free energy” value turned out to be 0.05 kcal/mol.

In the case of TTAATCACGTGGTGAA, the “relative binding free energy” value worked out at 0.23 kcal/mol.

Regarding TGTGACACGTGTGAGG, the “relative binding free energy” value was 0.04 kcal/mol.

In the case of TTTGTCACGTGTAACT, the “relative binding free energy” value came to 0.18 kcal/mol.

For the sequence GGTTTCACGTGATCAG, the “relative binding free energy” value was 0.27 kcal/mol.

Take TATTTCACGTGTCGCG: the “relative binding free energy” value was 0.22 kcal/mol.

Take GCAGTCACGTGGCTGT: the “relative binding free energy” value came out at 0.1 kcal/mol.

As to CGTGCCACGTGAAGGG, the “relative binding free energy” value is 0.08 kcal/mol.

For GGGATCACGTGATGAG, the “relative binding free energy” value stood at 0.35 kcal/mol.

As to TAGTTCACGTGTTCCG, the “relative binding free energy” value amounted to 0.3 kcal/mol.

For AGTGTCACGTGTTACT, the “relative binding free energy” value was -0.06 kcal/mol.

As for AGAGGCACGTGGTATT, the “relative binding free energy” value was -0.25 kcal/mol.

With GATAACACGTGAGTGT, the “relative binding free energy” value came out at 0.18 kcal/mol.

In the case of AGTAGCACGTGGTTCG, the “relative binding free energy” value was -0.21 kcal/mol.

With TTCAGCACGTGGTCGG, the “relative binding free energy” value was -0.19 kcal/mol.

Take ATCTTCACGTGGAGGT: the “relative binding free energy” value turned out to be 0.25 kcal/mol.

For the sequence ATGGTCACGTGGAGGT, the “relative binding free energy” value came out at 0.14 kcal/mol.

On to GAGTGCACGTGGTTGT, for which the “relative binding free energy” value is -0.07 kcal/mol.

As for TTTATCACGTGGAAAT, the “relative binding free energy” value worked out at 0.29 kcal/mol.

On to CGTAGCACGTGTTTAG, for which the “relative binding free energy” value is -0.07 kcal/mol.

With CTGGGCACGTGAGATA, the “relative binding free energy” value came out at 0.21 kcal/mol.

Take AAGTTCACGTGTAAGT: the “relative binding free energy” value was 0.41 kcal/mol.

For GGGGACACGTGAAGGA, the “relative binding free energy” value came to 0.33 kcal/mol.

AACGGCACGTGTGGTA: the “relative binding free energy” value is -0.02 kcal/mol.

As for TGGAACACGTGGTAGC, the “relative binding free energy” value was found to be 0 kcal/mol.

For the sequence AGGGCCACGTGTACTG, the “relative binding free energy” value was determined as 0.02 kcal/mol.

On to TGGTTCACGTGGGCTA, for which the “relative binding free energy” value was determined as 0.02 kcal/mol.

For the sequence AGGGGCACGTGCAGTG, the “relative binding free energy” value was -0.11 kcal/mol.

Regarding TTGTGCACGTGAGTAA, the “relative binding free energy” value is 0.11 kcal/mol.

GGTTACACGTGAATTA: the “relative binding free energy” value is 0.31 kcal/mol.

For CTAGGCACGTGGTGAG, the “relative binding free energy” value is -0.08 kcal/mol.

On to TTGCTCACGTGTGAGT, for which the “relative binding free energy” value was found to be 0.19 kcal/mol.

Regarding CGTATCACGTGGAGTT, the “relative binding free energy” value amounted to 0.09 kcal/mol.

Consider TGTTACACGTGGTAAA, for which the “relative binding free energy” value turned out to be 0.16 kcal/mol.

For the sequence TTATGCACGTGATTCT, the “relative binding free energy” value came out at 0.07 kcal/mol.

As to GGAAGCACGTGATTGG, the “relative binding free energy” value is 0.01 kcal/mol.

Turning to AATTGCACGTGTTAAT, the “relative binding free energy” value was -0.04 kcal/mol.

Consider TATAGCACGTGTGGCG, for which the “relative binding free energy” value amounted to 0.03 kcal/mol.

Turning to GATGACACGTGTCGGG, the “relative binding free energy” value is 0.13 kcal/mol.

AATTACACGTGAAGTT: the “relative binding free energy” value stood at 0.38 kcal/mol.

Turning to CAGTGCACGTGTTGAG, the “relative binding free energy” value is -0.06 kcal/mol.

As for GACGTCACGTGGTGGT, the “relative binding free energy” value was found to be 0.03 kcal/mol.

TTTCTCACGTGGAGTG: the “relative binding free energy” value came out at 0.19 kcal/mol.

As to CTGGTCACGTGTGCAG, the “relative binding free energy” value is 0.02 kcal/mol.

Regarding TTAGACACGTGAAAGG, the “relative binding free energy” value was 0.36 kcal/mol.

Take TGCGTCACGTGTTAAG: the “relative binding free energy” value was 0.07 kcal/mol.

In the case of GTCATCACGTGGAGTG, the “relative binding free energy” value came to 0.13 kcal/mol.

GGTTGCACGTGTTACG: the “relative binding free energy” value was found to be 0.13 kcal/mol.

Turning to ATATGCACGTGTTTCG, the “relative binding free energy” value was -0.02 kcal/mol.

TTAGGCACGTGCGAGG: the “relative binding free energy” value is -0.12 kcal/mol.

As for GAATGCACGTGTGGTA, the “relative binding free energy” value amounted to 0.01 kcal/mol.

Take GTCTTCACGTGAGTAT: the “relative binding free energy” value worked out at 0.34 kcal/mol.

In the case of GTGGTCACGTGGTAGC, the “relative binding free energy” value is 0.13 kcal/mol.

In the case of ACCGGCACGTGTGTGT, the “relative binding free energy” value is -0.12 kcal/mol.

In the case of AGAGTCACGTGTACTG, the “relative binding free energy” value worked out at 0.17 kcal/mol.

Take AGCGGCACGTGTGGCT: the “relative binding free energy” value was -0.11 kcal/mol.

Consider AATTTCACGTGTGTTG, for which the “relative binding free energy” value is 0.34 kcal/mol.
